# Experimental data as given in PubChem BioAssay AID485364 (National Center for Advancing Translational Sciences (NCATS), 2010).
# The campaign covered roughly 360,000 compounds. About 11,000 (3.1%) were called active. Inconclusive results, whose numbers are uncertain, are shown with a selection of clear calls. Calls follow the shape of the dose curve; as a rule, active = well fitted inhibition curve with a large enough effect; inconclusive = small, poorly fitted or top-dose-only effect; inactive = no such curve, though single readings can be large or run the other way. No potency is given beside an inconclusive call; the fits are too rough.
# Target: Schistosoma mansoni thioredoxin glutathione reductase (TGR) (UniProt Q962Y6)
# Test: qHTS Assay for the Inhibitors of Schistosoma Mansoni Peroxiredoxins; also: nearly all actives have a fitted effect of over 60% in size
# Settings: purified TGR, DTNB reduction, TNB absorbance 405 nm; series mostly up to 114 µM
# Method in brief: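 TGR 20 nM + NADPH 100 uM (dispensed conc.), cpd preinc 15 min RT; start with NADPH (500 uM addition) then DTNB (15 mM addition). Kinetic TNB absorbance, 405 nm filter. Four-parameter Hill fit across titration.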
# Potency is read from the fitted curve at half-maximal effect; tags tell the direction and shape of the fitted curve.
row,SMILES,Potency
1,Cc1ccc(Cl)c(Cn2cnc3c(cnn3C(C)(C)C)c2=O)c1F,"inconclusive [inhibitor, single point]"
2,CSCCCNC(=S)Nc1cccc(S(=O)(=O)NC2=NCCC2)c1,"inconclusive [inhibitor, partial curve, poor fit]"
3,O=S(=O)(c1ccccc1)c1nc(-c2ccc(F)cc2)oc1N1CCCCCC1,inactive
4,Cc1[nH]c2ccccc2c1C(=O)CN1CCC(C(N)=O)(N2CCCCC2)CC1,"inconclusive [inhibitor, single point]"
5,Cc1ccc(C)c(CNC(=O)c2cnc3sc(N4CCCC4)nn3c2=O)c1,"inconclusive [inhibitor, single point]"
6,CCOc1ccc(C(=O)c2cn(Cc3ccc(F)cc3)c3ccc(F)cc3c2=O)cc1,inactive
7,COc1ccc(-c2nc(CS(=O)CC(=O)NCCc3ccc(OC)c(OC)c3)c(C)o2)cc1 (configuration not stated),"inconclusive [inhibitor, partial curve, poor fit]"
8,CC(C(=O)NC1C(=O)N2C(C(=O)O)=C(CSc3nnnn3C)CSC12)n1cc(Br)cn1 (configuration not stated),active: 0.562 µM
9,COCCNC(=O)Cn1ncc2c(C)n(Cc3ccc(C)cc3)c(C)c2c1=O,inactive
10,CCCCN(C)C(=O)c1cc2cc3cc(OC)ccc3nc2o1,inactive
11,O=C(/C=C/c1ccco1)N(Cc1cccc(F)c1)C1CCS(=O)(=O)C1 (configuration not stated),active: 10 µM
12,COc1ccc(-c2nnc(N3CCC(C)CC3)c3ccccc23)cc1,inactive
13,CCOC(=O)c1c(NC(=O)c2cc(=O)c3ccc(C)cc3o2)sc(C)c1C,inactive
14,O=C(COc1ccc(Cl)cc1)Nc1nc(-c2ccncc2)cs1,inactive
15,COC(=O)Sc1nnc(-c2ccc(Br)cc2)o1,active: 44.7 µM
16,COc1cc(C2c3c(n[nH]c3C)C(=O)N2c2ccc(Br)cc2)ccc1O (configuration not stated),active: 4.47 µM
17,C=C(C)COc1ccc(-c2nc(N)ncc2-c2ccc(Br)cc2)c(O)c1,"inconclusive [inhibitor, partial curve]"
18,O=C(COC(=O)c1cccc([N+](=O)[O-])c1)NCc1cccs1,"inconclusive [inhibitor, partial curve]"
19,C=CCN(C(=O)CNC(=O)c1ccco1)C(C(=O)NC1CCCCC1)c1ccc(F)cc1 (configuration not stated),"inconclusive [inhibitor, full curve]"
20,Cc1ccc(Nc2cnn(C34CC5CC(CC(CC(=O)O)(C5)C3)C4)c(=O)c2Cl)c(Cl)c1,"inconclusive [inhibitor, partial curve]"
21,Oc1ccc(NCc2ccc(OCc3ccccc3Cl)cc2)cc1,active: 35.5 µM
22,Cc1ccc(N2CC(NC(=O)C(=O)c3c[nH]c4ccccc34)CC2=O)cc1 (configuration not stated),inactive
23,Cc1cc(Cl)ccc1NC(=O)CSc1nnc(-c2ccncc2)n1Cc1ccco1,active: 44.7 µM
24,Cc1ccc(Cn2c(CCCNC(=O)C3CCCCC3)nc3ccccc32)cc1,inactive

row,SMILES,Potency
1,Fc1cccc2sc(N3CCOCC3)nc12,inactive
2,CCSc1ccc2cc(OC)ccc2[n+]1CC,"inconclusive [inhibitor, partial curve]"
3,Cc1ccc(C)c(NC(=O)/C(C#N)=C/c2ccc(Sc3nncn3C)c([N+](=O)[O-])c2)c1,"inconclusive [inhibitor, partial curve]"
4,CCOc1cccc(C=Nc2cc(C)cc(C)c2O)c1O,active: 3.98 µM
5,O=C(NCCCN1CCOCC1)c1ccc2c(c1)N(Cc1cccc(F)c1)C(=O)c1ccccc1S2,active: 22.4 µM
6,O=C(CN(Cc1ccco1)Cc1cccs1)N1CCN(S(=O)(=O)c2cccc(F)c2)CC1,active: 39.8 µM
7,COc1ccc(CCN(C)CC(O)COc2ccc(C(C)=O)cc2OC)cc1OC (configuration not stated),"inconclusive [inhibitor, partial curve]"
8,CC(=O)C1=NN(c2ccccc2)C(c2cccs2)N1c1ccccc1 (configuration not stated),inactive
9,COc1cccc(N2C(=O)NC(=O)/C(=C/c3ccc4c(c3)Cc3ccccc3-4)C2=O)c1,"inconclusive [inhibitor, partial curve, poor fit]"
10,CCOC(=O)c1ccc(NC(=S)NC(=O)C2CCCC2)cc1,"inconclusive [inhibitor, partial curve]"
11,Cc1ccc(-n2cc(CN3CCC(O)(c4ccccn4)CC3)c(-c3ccc(F)cc3)n2)cc1,"inconclusive [inhibitor, partial curve]"
12,Cc1ccc(C(=O)NNC2CC(=O)N(c3ccc4c(c3)OCCO4)C2=O)cc1 (configuration not stated),"inconclusive [inhibitor, partial curve]"
13,CN(C)C(=S)N=Nc1[nH]c2ccccc2c1O,"inconclusive [inhibitor, full curve]"
14,COc1ccccc1OCc1ccc(C(=O)N2N=C(C(F)F)CC2(O)C(F)F)o1 (configuration not stated),"inconclusive [inhibitor, single point]"
15,Cc1ccc(-c2nc(S(=O)(=O)c3ccc(C)cc3)c(N3CCCCCC3)o2)cc1,"inconclusive [inhibitor, full curve, poor fit]"
16,Cc1ccccc1CSc1nc2cccnc2n1Cc1ccc(C(=O)NC2CC2)cc1,inactive
17,COCC(C)NC(=O)c1cc(S(=O)(=O)N2CCCCC2)ccc1N1CCOCC1 (configuration not stated),inactive
18,Cc1[nH]c2ccccc2c1Cc1n[nH]c(=S)o1,"inconclusive [inhibitor, partial curve]"
19,CCN(CC)CCn1c(NS(=O)(=O)c2ccc(C)cc2)nc2ccccc21,"inconclusive [inhibitor, partial curve]"
20,O=C(COC(=O)CSc1ccc([N+](=O)[O-])cc1)NCc1ccco1,"inconclusive [inhibitor, partial curve, poor fit]"
21,CCCc1cc(=O)[nH]c(SCC(=O)c2c(N)n(C3CC3)c(=O)[nH]c2=O)n1,inactive
22,CCCCN(CC)Cc1ccc(CNC(=S)Nc2cccc(F)c2)o1,active: 39.8 µM
23,O=C(NC1=C(Nc2ccc(F)cc2)C(=O)c2ccccc2C1=O)c1ccc(Cl)cc1,active: 22.4 µM
